# Data: a collection of fitness landscapes (doi:10.1126/science.1257360)
# The list shows a part of the results.
# B1: PhoQ; a variant is named by its letters at X, in order, P23837 (parent)
# chain: MKKLLRLFFPLSLRVRFLLATAAVVLVLSLAYGMVALIGYSVSFDKTTFRLLRGESNLFYTLAKWENNKLHVELPENIDKQSPTMTLIYDENGQLLWAQRDVPWLMKMIQPDWLKSNGFHEIEADVNDTSLLLSGDHSIQQQLQEVREDDDDAEMTHSVAVNVYPATSRMPKLTIVVVDTIPVELKSSYMVWSWFIYVLSANLLLVIPLLWVAAWWSLRPIEALAKEVRELEEHNRELLNPATTRELTSLVRNLNRLLKSERERYDKYRTTLTDLTHSLKTPLXXLQXXLRSLRSEKMSVSDAEPVMLEQISRISQQIGYYLHRASMRGGTLLSRELHPVAPLLDNLTSALNKVYQRKGVNISLDISPEISFVGEQNDFVEVMGNVLDNACKYCLEFVEISARQTDEHLYIVVEDDGPGIPLSKREVIFDRGQRVDTLRPGQGVGLAVAREITEQYEGKIVAGESMLGGARMEVIFGRQHSAPKDE
# Variants of: B1
# Assay: enrichment ratio after two sorts for PhoP signalling (ratio (wild type AVST 3.29)); higher = more functional
# Settings: with PhoP (E. coli)
row,Variant,enrichment ratio
1,PDPS,≤ 0.25
2,PAKG,≤ 0.25
3,SMKK,≤ 0.25
4,SMTH,4.57
5,WHIE,≤ 0.25
6,DEQR,≤ 0.25
7,NPIN,≤ 0.25
8,ELMK,≤ 0.25
9,INSH,≤ 0.25
10,RWEA,≤ 0.25
11,LEDH,≤ 0.25
12,DECN,≤ 0.25
13,ATMP,≤ 0.25
14,NHSA,≤ 0.25
15,QNVS,≤ 0.25
16,YRMG,≤ 0.25
17,PMNC,≤ 0.25
18,IKLC,≤ 0.25
19,ICLG,8.57
20,TIFH,≤ 0.25
21,PVFC,≤ 0.25
22,MTDC,≤ 0.25
23,IEHQ,≤ 0.25
24,MVPG,≤ 0.25
25,AMSV,6.73
26,WCHF,≤ 0.25

row,Variant,enrichment ratio
1,MTKH,≤ 0.25
2,VAHC,≤ 0.25
3,LTAW,1.45
4,EYLG,≤ 0.25
5,YTKC,≤ 0.25
6,VWCL,≤ 0.25
7,EANS,≤ 0.25
8,RSDM,≤ 0.25
9,NCLH,≤ 0.25
10,RYVR,≤ 0.25
11,VVAW,≤ 0.25
12,EVKT,≤ 0.25
13,KMAP,≤ 0.25
14,RGYE,≤ 0.25
15,MHGK,≤ 0.25
16,KQDP,≤ 0.25
17,LIGT,≤ 0.25
18,DAHP,≤ 0.25
19,SSTM,21.4
20,HSKC,≤ 0.25
21,TQLY,9.77
22,YRQR,≤ 0.25
23,QTCF,≤ 0.25
24,KMHF,≤ 0.25
25,SSLN,6.84
26,GNEY,≤ 0.25

row,Variant,enrichment ratio
1,IEHW,≤ 0.25
2,SYNF,≤ 0.25
3,ITAK,≤ 0.25
4,HHTK,≤ 0.25
5,GSYY,≤ 0.25
6,YQIN,≤ 0.25
7,FDTG,≤ 0.25
8,EYSI,≤ 0.25
9,KGRH,≤ 0.25
10,NFAA,≤ 0.25
11,SIWR,≤ 0.25
12,GARG,≤ 0.25
13,WKYW,≤ 0.25
14,LNTT,≤ 0.25
15,YAWH,≤ 0.25
16,DMFM,≤ 0.25
17,DAWN,≤ 0.25
18,GCII,18.2
19,VITS,≤ 0.25
20,SEGV,11.7
21,FGRS,≤ 0.25
22,DKWP,≤ 0.25
23,FWSL,≤ 0.25
24,QEFS,10.5
